Article PMC12818216
Results are given in words; binding and its absence hold for the method and conditions named. Binding seen in cells or lysates may run through a third protein. Some results given as binding are weak or reduced against the parent protein; the word gives no strength. For some assays here: Sequences can lack the tags named with a protein.

Protein sequences, listed by entry. Tags and fused reporters are not part of them.
UniProt P40763: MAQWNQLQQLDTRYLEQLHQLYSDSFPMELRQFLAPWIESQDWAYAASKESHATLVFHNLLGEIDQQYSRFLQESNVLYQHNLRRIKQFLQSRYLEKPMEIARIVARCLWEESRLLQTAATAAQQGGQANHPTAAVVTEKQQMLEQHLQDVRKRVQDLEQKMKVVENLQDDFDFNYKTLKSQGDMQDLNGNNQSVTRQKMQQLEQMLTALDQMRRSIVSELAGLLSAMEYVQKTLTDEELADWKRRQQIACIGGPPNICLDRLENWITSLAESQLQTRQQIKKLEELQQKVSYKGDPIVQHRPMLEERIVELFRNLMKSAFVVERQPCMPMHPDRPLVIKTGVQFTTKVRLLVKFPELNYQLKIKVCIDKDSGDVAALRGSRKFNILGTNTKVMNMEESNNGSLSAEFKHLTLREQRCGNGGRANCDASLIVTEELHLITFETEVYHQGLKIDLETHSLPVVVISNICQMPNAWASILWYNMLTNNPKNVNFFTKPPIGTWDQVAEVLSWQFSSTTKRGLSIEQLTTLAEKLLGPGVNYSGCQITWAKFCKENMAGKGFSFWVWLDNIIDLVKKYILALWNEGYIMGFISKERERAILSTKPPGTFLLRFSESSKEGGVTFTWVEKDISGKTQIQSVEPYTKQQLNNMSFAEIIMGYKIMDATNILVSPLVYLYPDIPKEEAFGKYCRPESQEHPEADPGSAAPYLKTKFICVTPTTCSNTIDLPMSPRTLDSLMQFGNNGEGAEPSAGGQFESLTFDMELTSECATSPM
UniProt P23458: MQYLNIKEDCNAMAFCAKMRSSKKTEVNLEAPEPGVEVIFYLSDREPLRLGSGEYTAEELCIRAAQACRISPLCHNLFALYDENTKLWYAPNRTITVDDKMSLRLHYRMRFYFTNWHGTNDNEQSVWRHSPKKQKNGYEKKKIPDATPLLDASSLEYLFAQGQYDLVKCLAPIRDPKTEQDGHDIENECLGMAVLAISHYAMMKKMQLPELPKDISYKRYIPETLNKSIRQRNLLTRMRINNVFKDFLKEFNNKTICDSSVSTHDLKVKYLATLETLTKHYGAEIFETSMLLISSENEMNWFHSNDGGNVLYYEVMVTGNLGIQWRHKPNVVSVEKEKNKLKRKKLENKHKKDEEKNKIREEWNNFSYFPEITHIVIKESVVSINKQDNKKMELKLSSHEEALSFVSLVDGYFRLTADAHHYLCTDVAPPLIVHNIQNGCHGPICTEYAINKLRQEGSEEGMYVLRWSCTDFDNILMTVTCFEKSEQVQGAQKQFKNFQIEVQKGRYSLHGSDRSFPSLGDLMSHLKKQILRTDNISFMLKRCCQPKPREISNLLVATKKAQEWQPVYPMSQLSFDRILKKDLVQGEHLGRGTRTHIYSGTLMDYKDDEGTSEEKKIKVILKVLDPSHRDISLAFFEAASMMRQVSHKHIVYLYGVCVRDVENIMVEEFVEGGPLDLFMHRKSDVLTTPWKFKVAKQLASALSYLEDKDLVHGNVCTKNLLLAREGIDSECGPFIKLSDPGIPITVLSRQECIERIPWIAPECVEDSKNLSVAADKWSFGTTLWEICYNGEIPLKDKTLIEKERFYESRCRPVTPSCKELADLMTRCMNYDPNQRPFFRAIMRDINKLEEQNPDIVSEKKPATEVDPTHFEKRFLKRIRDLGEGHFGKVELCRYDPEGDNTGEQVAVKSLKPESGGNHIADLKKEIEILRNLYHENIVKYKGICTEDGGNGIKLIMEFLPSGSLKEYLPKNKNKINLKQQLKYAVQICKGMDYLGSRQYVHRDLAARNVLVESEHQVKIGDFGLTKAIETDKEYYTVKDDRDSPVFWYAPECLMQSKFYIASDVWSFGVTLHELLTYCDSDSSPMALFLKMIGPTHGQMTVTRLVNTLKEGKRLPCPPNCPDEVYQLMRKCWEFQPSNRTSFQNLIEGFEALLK
UniProt P07814: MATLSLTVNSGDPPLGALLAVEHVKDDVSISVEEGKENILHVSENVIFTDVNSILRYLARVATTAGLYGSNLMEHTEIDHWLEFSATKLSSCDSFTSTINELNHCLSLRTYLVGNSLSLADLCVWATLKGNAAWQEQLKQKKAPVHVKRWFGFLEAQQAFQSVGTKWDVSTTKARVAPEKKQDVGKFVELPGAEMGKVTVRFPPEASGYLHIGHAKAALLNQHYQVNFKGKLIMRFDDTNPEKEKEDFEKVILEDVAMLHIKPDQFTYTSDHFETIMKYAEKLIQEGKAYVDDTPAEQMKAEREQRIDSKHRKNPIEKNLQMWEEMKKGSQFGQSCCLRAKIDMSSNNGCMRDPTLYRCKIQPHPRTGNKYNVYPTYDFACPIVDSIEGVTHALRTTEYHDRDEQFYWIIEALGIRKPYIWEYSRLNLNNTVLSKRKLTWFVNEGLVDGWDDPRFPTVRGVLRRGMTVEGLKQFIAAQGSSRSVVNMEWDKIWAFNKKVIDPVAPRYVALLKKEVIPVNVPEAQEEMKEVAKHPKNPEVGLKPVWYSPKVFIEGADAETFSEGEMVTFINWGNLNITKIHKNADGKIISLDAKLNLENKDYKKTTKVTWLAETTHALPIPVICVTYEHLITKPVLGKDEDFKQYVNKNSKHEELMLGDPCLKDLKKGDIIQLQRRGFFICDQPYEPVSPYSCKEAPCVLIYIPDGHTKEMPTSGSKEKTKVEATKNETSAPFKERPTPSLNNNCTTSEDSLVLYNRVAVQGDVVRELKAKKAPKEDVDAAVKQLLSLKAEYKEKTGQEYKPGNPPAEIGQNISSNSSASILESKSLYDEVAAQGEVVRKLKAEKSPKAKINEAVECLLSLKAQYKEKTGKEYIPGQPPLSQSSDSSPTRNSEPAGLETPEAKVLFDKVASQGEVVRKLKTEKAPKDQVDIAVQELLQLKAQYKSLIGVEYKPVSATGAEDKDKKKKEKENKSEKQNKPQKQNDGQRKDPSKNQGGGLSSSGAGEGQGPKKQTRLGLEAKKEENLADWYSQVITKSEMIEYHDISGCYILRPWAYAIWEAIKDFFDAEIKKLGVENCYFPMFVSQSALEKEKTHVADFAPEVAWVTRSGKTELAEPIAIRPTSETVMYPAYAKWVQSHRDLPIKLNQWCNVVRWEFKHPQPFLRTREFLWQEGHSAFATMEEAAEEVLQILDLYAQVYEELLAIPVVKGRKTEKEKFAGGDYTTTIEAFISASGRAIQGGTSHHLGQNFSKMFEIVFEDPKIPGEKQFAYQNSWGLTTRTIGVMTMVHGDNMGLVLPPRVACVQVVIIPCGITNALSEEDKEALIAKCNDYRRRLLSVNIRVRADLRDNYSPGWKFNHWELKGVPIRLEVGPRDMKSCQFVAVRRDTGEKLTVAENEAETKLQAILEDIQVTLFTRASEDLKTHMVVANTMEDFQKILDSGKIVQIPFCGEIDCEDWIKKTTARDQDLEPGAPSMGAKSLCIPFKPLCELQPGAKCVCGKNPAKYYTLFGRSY
UniProt Q9P2J5: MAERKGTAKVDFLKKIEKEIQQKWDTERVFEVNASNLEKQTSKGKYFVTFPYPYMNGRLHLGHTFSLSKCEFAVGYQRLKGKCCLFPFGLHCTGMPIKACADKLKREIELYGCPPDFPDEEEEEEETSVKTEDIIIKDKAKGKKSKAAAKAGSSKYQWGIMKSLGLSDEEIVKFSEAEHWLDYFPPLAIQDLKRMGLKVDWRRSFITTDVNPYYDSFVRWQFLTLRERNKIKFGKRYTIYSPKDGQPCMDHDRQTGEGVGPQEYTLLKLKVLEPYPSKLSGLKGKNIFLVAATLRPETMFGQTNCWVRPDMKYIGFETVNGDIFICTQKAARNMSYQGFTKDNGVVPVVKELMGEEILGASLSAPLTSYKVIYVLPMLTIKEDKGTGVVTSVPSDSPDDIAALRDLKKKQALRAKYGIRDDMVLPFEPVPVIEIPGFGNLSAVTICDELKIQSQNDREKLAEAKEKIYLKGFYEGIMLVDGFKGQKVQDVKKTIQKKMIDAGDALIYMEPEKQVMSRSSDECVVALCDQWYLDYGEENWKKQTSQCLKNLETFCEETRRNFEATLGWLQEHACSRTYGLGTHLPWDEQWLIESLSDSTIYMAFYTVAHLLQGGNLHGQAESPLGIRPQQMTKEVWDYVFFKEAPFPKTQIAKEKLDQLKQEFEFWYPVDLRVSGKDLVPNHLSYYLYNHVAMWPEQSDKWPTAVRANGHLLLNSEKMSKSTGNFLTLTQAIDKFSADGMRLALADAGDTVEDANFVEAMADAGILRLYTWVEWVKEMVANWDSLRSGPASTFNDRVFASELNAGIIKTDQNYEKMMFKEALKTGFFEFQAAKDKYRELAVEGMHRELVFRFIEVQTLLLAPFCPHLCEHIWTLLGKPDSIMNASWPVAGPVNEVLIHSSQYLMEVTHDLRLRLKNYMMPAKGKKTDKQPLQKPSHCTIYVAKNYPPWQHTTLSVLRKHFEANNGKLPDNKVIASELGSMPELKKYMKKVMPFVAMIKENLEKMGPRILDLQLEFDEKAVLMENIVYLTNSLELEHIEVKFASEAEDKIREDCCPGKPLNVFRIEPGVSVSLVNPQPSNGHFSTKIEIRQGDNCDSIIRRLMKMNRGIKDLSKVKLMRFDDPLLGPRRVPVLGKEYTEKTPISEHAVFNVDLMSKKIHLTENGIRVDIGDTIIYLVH
UniProt Q15046: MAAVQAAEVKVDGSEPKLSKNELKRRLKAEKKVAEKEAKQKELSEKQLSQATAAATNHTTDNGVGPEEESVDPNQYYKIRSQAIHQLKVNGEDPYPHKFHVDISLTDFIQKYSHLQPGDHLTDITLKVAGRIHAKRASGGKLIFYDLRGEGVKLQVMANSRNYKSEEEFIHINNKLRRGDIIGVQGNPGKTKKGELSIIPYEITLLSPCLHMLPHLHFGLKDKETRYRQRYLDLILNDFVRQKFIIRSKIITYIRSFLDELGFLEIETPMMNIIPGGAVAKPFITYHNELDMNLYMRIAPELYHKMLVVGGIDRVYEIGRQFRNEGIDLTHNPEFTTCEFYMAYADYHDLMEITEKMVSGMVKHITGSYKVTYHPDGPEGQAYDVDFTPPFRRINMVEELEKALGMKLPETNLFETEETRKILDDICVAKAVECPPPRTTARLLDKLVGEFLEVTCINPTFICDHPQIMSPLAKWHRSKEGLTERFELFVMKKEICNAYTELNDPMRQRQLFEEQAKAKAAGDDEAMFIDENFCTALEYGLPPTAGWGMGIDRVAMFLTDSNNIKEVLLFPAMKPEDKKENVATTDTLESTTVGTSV

T1: FLAG-TARS1 (mouse) (UniProt Q9D0R2)
T1 sequence: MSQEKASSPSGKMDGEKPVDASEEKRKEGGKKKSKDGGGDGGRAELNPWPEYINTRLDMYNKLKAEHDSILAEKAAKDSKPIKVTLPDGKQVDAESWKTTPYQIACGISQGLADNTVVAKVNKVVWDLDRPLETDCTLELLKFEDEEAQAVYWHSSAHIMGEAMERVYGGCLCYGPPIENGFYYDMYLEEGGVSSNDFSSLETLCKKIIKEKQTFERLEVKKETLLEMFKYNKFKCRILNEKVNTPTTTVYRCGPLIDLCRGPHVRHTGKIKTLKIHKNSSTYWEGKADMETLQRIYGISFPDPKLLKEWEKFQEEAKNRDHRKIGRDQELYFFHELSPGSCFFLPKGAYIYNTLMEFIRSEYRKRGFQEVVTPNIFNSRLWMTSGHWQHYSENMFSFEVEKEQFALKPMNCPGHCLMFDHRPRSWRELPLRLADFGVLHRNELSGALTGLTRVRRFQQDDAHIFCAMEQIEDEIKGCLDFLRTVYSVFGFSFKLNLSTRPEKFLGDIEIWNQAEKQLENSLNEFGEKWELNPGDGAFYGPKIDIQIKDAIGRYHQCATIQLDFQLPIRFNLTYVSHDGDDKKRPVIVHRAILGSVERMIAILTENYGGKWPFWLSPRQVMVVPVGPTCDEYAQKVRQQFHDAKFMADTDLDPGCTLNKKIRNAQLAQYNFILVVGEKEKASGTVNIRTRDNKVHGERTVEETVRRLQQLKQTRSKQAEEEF


How the values were obtained:
FLAG-STAT3 = FLAG-STAT3 (UniProt P40763); assay: co-IP; HEK293 cells transfected for 2 days with recombinant constructs, anti-FLAG IP and Western blotting
FLAG-TARS1 (mouse) = target: T1, FLAG-TARS1 (mouse); assay: as above
[1] = target: signal transducer and activator of transcription 3 (STAT3), endogenous (human (endogenous in H1703)) (UniProt P40763); assay: co-IP; H1703 cell lysates, endogenous proteins, IP with anti-STAT3 followed by Western blotting
FLAG-JAK1 = FLAG-JAK1 (UniProt P23458); assay: co-IP; HEK293 cells transfected with FLAG-JAK1 (or empty vector) for 2 days, anti-FLAG IP; endogenous TARS1 detected by Western blotting

| Molecule | binding (FLAG-STAT3) | further results |
| --- | --- | --- |
| glutamyl-prolyl-tRNA synthetase 1 (from UniProt P07814 1-1512) (enzyme) | no binding |  |
| leucyl-tRNA synthetase 1 (from UniProt Q9P2J5 1-1176) (enzyme) | no binding |  |
| GFP-STAT3 (from UniProt P40763 1-770) |  | binding (FLAG-TARS1 (mouse)): binds |
| lysyl-tRNA synthetase 1 (from UniProt Q15046 1-597) (enzyme) | no binding |  |
| threonyl-tRNA synthetase 1 (TARS1), endogenous (enzyme, UniProt P26639 1-723) MFEEKASSPSGKMGGEEKPIGAGEEKQKEGGKKKNKEGSGDGGRAELNPWPEYIYTRLEMYNILKAEHDSILAEKAEKDSKPIKVTLPDGKQVDAESWKTTPYQIACGISQGLADNTVIAKVNNVVWDLDRPLEEDCTLELLKFEDEEAQAVYWHSSAHIMGEAMERVYGGCLCYGPPIENGFYYDMYLEEGGVSSNDFSSLEALCKKIIKEKQAFERLEVKKETLLAMFKYNKFKCRILNEKVNTPTTTVYRCGPLIDLCRGPHVRHTGKIKALKIHKNSSTYWEGKADMETLQRIYGISFPDPKMLKEWEKFQEEAKNRDHRKIGRDQELYFFHELSPGSCFFLPKGAYIYNALIEFIRSEYRKRGFQEVVTPNIFNSRLWMTSGHWQHYSENMFSFEVEKELFALKPMNCPGHCLMFDHRPRSWRELPLRLADFGVLHRNELSGALTGLTRVRRFQQDDAHIFCAMEQIEDEIKGCLDFLRTVYSVFGFSFKLNLSTRPEKFLGDIEVWDQAEKQLENSLNEFGEKWELNSGDGAFYGPKIDIQIKDAIGRYHQCATIQLDFQLPIRFNLTYVSHDGDDKKRPVIVHRAILGSVERMIAILTENYGGKWPFWLSPRQVMVVPVGPTCDEYAQKVRQQFHDAKFMADIDLDPGCTLNKKIRNAQLAQYNFILVVGEKEKISGTVNIRTRDNKVHGERTISETIERLQQLKEFRSKQAEEEF |  | binding [1]: binds; binding (FLAG-JAK1): binds |
| GFP-TARS1 (enzyme, UniProt Q9D0R2 1-722) MSQEKASSPSGKMDGEKPVDASEEKRKEGGKKKSKDGGGDGGRAELNPWPEYINTRLDMYNKLKAEHDSILAEKAAKDSKPIKVTLPDGKQVDAESWKTTPYQIACGISQGLADNTVVAKVNKVVWDLDRPLETDCTLELLKFEDEEAQAVYWHSSAHIMGEAMERVYGGCLCYGPPIENGFYYDMYLEEGGVSSNDFSSLETLCKKIIKEKQTFERLEVKKETLLEMFKYNKFKCRILNEKVNTPTTTVYRCGPLIDLCRGPHVRHTGKIKTLKIHKNSSTYWEGKADMETLQRIYGISFPDPKLLKEWEKFQEEAKNRDHRKIGRDQELYFFHELSPGSCFFLPKGAYIYNTLMEFIRSEYRKRGFQEVVTPNIFNSRLWMTSGHWQHYSENMFSFEVEKEQFALKPMNCPGHCLMFDHRPRSWRELPLRLADFGVLHRNELSGALTGLTRVRRFQQDDAHIFCAMEQIEDEIKGCLDFLRTVYSVFGFSFKLNLSTRPEKFLGDIEIWNQAEKQLENSLNEFGEKWELNPGDGAFYGPKIDIQIKDAIGRYHQCATIQLDFQLPIRFNLTYVSHDGDDKKRPVIVHRAILGSVERMIAILTENYGGKWPFWLSPRQVMVVPVGPTCDEYAQKVRQQFHDAKFMADTDLDPGCTLNKKIRNAQLAQYNFILVVGEKEKASGTVNIRTRDNKVHGERTVEETVRRLQQLKQTRSKQAEEEF | binds |  |
| aspartyl-tRNA synthetase 1 (enzyme, UniProt P14868 1-501) MPSASASRKSQEKPREIMDAAEDYAKERYGISSMIQSQEKPDRVLVRVRDLTIQKADEVVWVRARVHTSRAKGKQCFLVLRQQQFNVQALVAVGDHASKQMVKFAANINKESIVDVEGVVRKVNQKIGSCTQQDVELHVQKIYVISLAEPRLPLQLDDAVRPEAEGEEEGRATVNQDTRLDNRVIDLRTSTSQAVFRLQSGICHLFRETLINKGFVEIQTPKIISAASEGGANVFTVSYFKNNAYLAQSPQLYKQMCICADFEKVFSIGPVFRAEDSNTHRHLTEFVGLDIEMAFNYHYHEVMEEIADTMVQIFKGLQERFQTEIQTVNKQFPCEPFKFLEPTLRLEYCEALAMLREAGVEMGDEDDLSTPNEKLLGHLVKEKYDTDFYILDKYPLAVRPFYTMPDPRNPKQSNSYDMFMRGEEILSGAQRIHDPQLLTERALHHGIDLEKIKAYIDSFRFGAPPHAGGGIGLERVTMLFLGLHNVRQTSMFPRDPKRLTP | no binding |  |
